Measurements reported in PubChem BioAssay AID493208 (National Center for Advancing Translational Sciences (NCATS), 2011).
In all, about 44,000 compounds went through this assay and about 340 (0.77%) were called active. About 5% were inconclusive and are not listed. The call rests on the fitted dose curve; in most records, active means well fitted inhibition curve with a large enough effect; inconclusive means small, poorly fitted or top-dose-only effect; inactive means flat fitted curve, though single readings scatter. The list shows a part of the results.

Assay: Acumen qHTS Assay for Inhibitors of the mTORC1 Signaling Pathway in MEF (Tsc2-/-, p53-/-) Cells: Sytravon;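 further: plate controls were DMSO for no effect and rapamycin for full effect; nearly all actives have a fitted effect of over 50% in size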
Conditions: phospho-rpS6 immunofluorescence/PI, 24 h; series mostly up to 38.3 µM; activity change, negative = inhibition: at the top concentration
Outline: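 Compounds act on Tsc2-/-, p53-/- fibroblasts carrying an empty vector for 24 h before fixation and dual staining for phospho-S6 and DNA (propidium iodide). Values are percentages of cells above a rapamycin-defined pS6/PI threshold.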

Activity change, negative = inhibition, inactive:
CCOC(=O)c1ccc(NC(=O)c2nsc3ccccc23)cc1 -3.86%
CN1CCc2nc3sc(C(=O)Nc4c(F)cccc4F)c(N)c3cc2C1 -5.37%
CCOc1ccc(NC(=O)Cn2c(=O)c(CNc3ccc(OC)cc3)cc3ccc(OC)cc32)cc1 -3.8%
Cc1ccc(-c2cnc(NCc3c(F)cccc3Cl)n2C)cc1 -25.6%
CCOC(=O)c1cc(S(=O)(=O)N2CCN(c3cc(Cl)ccc3C)CC2)[nH]n1 0.885%
CCc1ccc(OCC(=O)Nc2c(C(=O)c3ccccc3)oc3ccccc23)cc1 12%
Cc1cc(=O)n2nc(N3CCC(C(=O)NCc4ccccc4Cl)CC3)sc2n1 0.527%
Cc1nc(-c2cccc(S(=O)(=O)N3CCC(C(=O)NCc4ccccc4)CC3)c2)no1 -3.65%
Cc1ccccc1NC(=O)CCc1c(C)nc2c(c1C)c(=O)n(C)c(=O)n2C -0.0801%
CCCN(C(=O)Cn1cnc2sc(C)c(S(=O)(=O)N3CCN(c4ncccn4)CC3)c2c1=O)c1cccc(C)c1 1.48%
COc1cccc(NC(=O)c2nnn(Cc3cccc(C(F)(F)F)c3)c2N)c1 -16.2%
COc1ccc(NS(=O)(=O)c2ccc3c(c2)oc(=O)n3C)cc1Cl -2.34%
COc1ccc(OC)c(S(=O)(=O)Nc2ccc3[nH]c(=O)[nH]c3c2)c1 -1.53%
Cc1cccc(CN2C(=O)c3ccccc3S(=O)(=O)c3ccc(C(=O)N4CCCC4)cc32)c1 -4.75%
CCn1ccc2cc(S(=O)(=O)N3CCCN(C(=O)Nc4ccc(C)cc4)CC3)ccc21 -4.87%
Cc1cc(C)cc(N(C)S(=O)(=O)c2nnc(NC(=O)COc3ccc(Cl)cc3)s2)c1 5.23%
CC(=O)c1cccc(NC(=O)CN2C(=O)CN(C)C(=O)c3ccccc32)c1 -2.51%
Cc1cccc(Cn2c(-c3cccs3)nc3ccccc32)c1 -12.7%
Cn1c(=O)c2c(nc(SCC(=O)Nc3ccc(F)cc3)n2Cc2ccc(Cl)cc2)n(C)c1=O 1.01%
CCOc1ccc(Cn2c(CNS(=O)(=O)c3cccs3)nc3cccnc32)cc1 -7.31%
Cc1ccc(N2CCN(c3cc(C)nc4c(-c5ccc(Cl)cc5)c(C)nn34)CC2C)cc1 (stereo not drawn) 4.65%
NC(=O)Cn1c(=O)n(-c2ccc(F)c(Cl)c2)c(=O)c2sc3ccccc3c21 -19.3%
CCc1nc(SCc2cc(=O)c3cc(F)ccc3[nH]2)n[nH]1 0%
CCOc1ccc(NC(=O)c2ccc3c(c2)c(C)c(C)n3Cc2ccc(F)cc2)cc1 -1.21%
Cc1cn2c(=O)c(S(=O)(=O)NC(C)c3ccccc3)c(C)nc2s1 (stereo not drawn) -2.72%
Cc1ccc(NC(=O)Cn2ncc3c4ccccc4n(Cc4ccccc4)c3c2=O)cc1Cl -0.953%
Cc1ccc(C)c2sc(N3CCN(C(=O)c4ccco4)CC3)nc12 -3.58%
COc1ccc(N2CCN(C(=O)c3c(C)oc4nc(C)nc(N5CCCC5)c34)CC2)cc1 -1.19%
Cc1ccc(N(C)S(=O)(=O)c2c(-c3ccccc3)csc2C(=O)O)cc1 -6.23%
Cc1cc2nc(-c3cccc(NC(=O)COc4ccc(C(C)C)cc4)c3)oc2cc1C -1.4%
COc1ccc(-c2nc(C)c(CCNC(=O)c3cccs3)s2)cc1 -6.47%
Cc1ccccc1-c1nnc(SCC(=O)N2CCCc3ccccc32)o1 -20.8%
CCCNC(=O)c1c(NC(=O)c2ccccc2F)sc2c1CCCCC2 -13.4%
Cc1nc(-c2ccc(S(=O)(=O)Nc3ccc(OC(F)(F)F)cc3)cc2)co1 -8.07%
CC(C)c1ccc(N2C(=O)CSC23C(=O)N(Cc2ccccc2F)c2ccccc23)cc1 (stereo not drawn) 1.99%
Cc1ccc(NC(=O)N2CCC(CN3CCCCCC3)CC2)c(Cl)c1 -1.65%
Cc1cccc(C(=O)OCc2cc(=O)n3nc(C4CC4)sc3n2)c1 -1.28%
Cc1ccc(-c2nc(C(=O)Nc3cccc(C#N)c3)c3n2CCCCC3)cc1 -22.8%
COc1ccc(-c2nc(SCC(=O)Nc3ccc4c(c3)OCO4)c(-c3ccc(F)cc3)[nH]2)cc1OC -11%
O=C1c2ccccc2C(=O)C1(c1ccccc1)N1CCN(c2cccc(C(F)(F)F)c2)CC1 0.751%
CCOc1ccccc1NC(=O)CCc1nc(-c2cccc(C)c2)no1 4.81%
CC(C)Oc1ccc(CNS(=O)(=O)c2csc(C(N)=O)c2)cc1 -21.3%
Cc1nc2nncn2c(Nc2ccc(F)cc2)c1C -19%
COc1ccc(Cl)cc1NC(=O)c1cc2ccccn2n1 -1.12%
CCC(=O)N1CCc2cc(S(=O)(=O)NCCC(=O)NCc3ccc(OC)cc3)ccc21 -5.21%
COc1cccc(-n2c(=O)c3sccc3n(Cc3cc(=O)n4cc(Cl)ccc4n3)c2=O)c1 7.57%
Cc1ccc(-c2nc(CCNC(=O)C(=O)Nc3ccc(F)cc3F)cs2)cc1 3.92%
Cc1ccc2c(c1)N(CC(=O)NCCCN1CCCCC1)C(=O)c1cccnc1O2 2.28%
COc1ccccc1NCc1nnc2n1CCCCC2 1.39%
COc1ccccc1CNC(=O)CCCN1C(=O)CCn2nc(-c3cn(C)c4ccccc34)cc21 -2.24%
CC(C)C(=O)Nc1c(C(=O)N2CCN(c3ccccc3F)CC2)oc2ccccc12 1.34%
Fc1ccc(C(c2nnc(-c3ccccc3)o2)N2CCN(c3ccccc3)CC2)c(Cl)c1 (stereo not drawn) -13.6%
Cc1ccc(-c2nc3sc(CCNC(=O)c4ccco4)c(C)n3n2)cc1 -3.13%
COc1cc(Cl)c(C)cc1NC(=O)c1nn(-c2ccc(C)cc2)c(=O)n(C)c1=O -2.48%
Cc1ccc(CSc2nc3ccncc3n2Cc2nc(-c3ccc(Cl)cc3)oc2C)cc1 -7.15%
CCOc1ccc(N2CC(NC(=O)c3cc4ccccc4o3)CC2=O)cc1 (stereo not drawn) -6.31%
COc1cccc(NC(=O)CSc2c(C)cnc3c2c(=O)n(C)c(=O)n3C)c1 -8.76%
CCCOC(=O)c1c(NC(=O)c2cc3nc(-c4ccc(OC)cc4)cc(C(F)(F)F)n3n2)sc2c1CCCC2 17.1%
CCOC(=O)c1ccc(NC(=O)C(=O)NCCc2ccc(OC)cc2)cc1 2.32%
Cc1ccc(C)c(NC(=O)Cn2c(-c3nonc3N)nc3ccccc32)c1 -18.3%
COc1ccc2oc(=O)c(C(=O)N3CCN(c4cc(Cl)ccc4Cl)CC3)cc2c1 -3.44%
CCCC(=O)Nc1cccc(-c2nc3ncccc3o2)c1 4.43%
COc1ccccc1N1CCN(C(=O)c2cnn(C(C)(C)C)c2C2CCN(C(=O)OC(C)(C)C)CC2)CC1 -4.5%
CCOC(=O)C1CCN(c2nc3c(S(=O)(=O)c4ccc(CC)cc4)nnn3c3ccc(Cl)cc23)CC1 -3.35%
Cc1cccn2c(=O)c3cc(C(=O)NC(C)(C)C)n(C)c3nc12 -2.59%
CC(=O)c1ccc(NC(=O)C2CCCN(S(=O)(=O)c3ccc(Br)s3)C2)cc1 (stereo not drawn) -0.567%
CCOc1ccc(NC(=O)c2sc3nc4n(c(=O)c3c2C)CCCC4)cc1 0.746%
Cc1cc(Cl)ccc1NC(=O)CS(=O)(=O)c1cccc2nsnc12 -3.85%
CCOC(=O)c1ccc(NC(=O)C2CCN(S(=O)(=O)Cc3ccccc3)CC2)cc1 -9.13%
CCOc1ccc(N(CC)C(=O)c2cc3c(s2)-c2ccc(Cl)cc2SC3)cc1 -7.61%
Cc1ccn2c(Nc3ccc4c(c3)OCO4)c(-c3ccc(C)o3)nc2c1 -4.58%
Cc1ccc(C(=O)NCCSc2c[nH]c3ccccc23)cc1C -4.71%
Cc1cc(C)cc(NC(=O)CSc2oc(-c3cccs3)nc2S(=O)(=O)c2ccc(Br)cc2)c1 1.25%
CCc1ccc(NCc2cc3ccc(OC)cc3n(CC(=O)Nc3ccccc3OC)c2=O)cc1 -1.69%
COC(=O)c1sc2cccc(F)c2c1S(=O)(=O)NC(C)c1ccccc1 (stereo not drawn) -14.2%
COc1ccc(NC(=O)C2(S(=O)(=O)c3ccc(C)cc3)CC2)c(OC)c1 -19.6%
CCOC(=O)C1CCN(C(=O)c2ccc3c(=O)n4nc(Nc5ccccc5)sc4nc3c2)CC1 -4.57%
COc1ccc(-c2c(C)c3ccc(O)c(CN4CCCCC4C)c3oc2=O)cc1OC (stereo not drawn) -20%
CCCN(CCC)C(=O)Cn1c(=O)n(-c2ccc(CC)cc2)c(=O)c2c3c(sc21)CCC3 -1.09%
CCOc1ccc(NC(c2ccc(Cl)cc2)c2nnc(-c3cccc(F)c3)o2)cc1 (stereo not drawn) 1.18%
Cc1ccc(CN(C(=O)COc2cccc(Cl)c2)c2ccccn2)o1 -1.54%
O=C(Nc1ccccc1F)C(c1ccccc1)N1Cc2ccccc2C1=O (stereo not drawn) 0.475%
CCCOC(=O)c1ccc(NC(=O)C2CC(=O)N(c3ccc(C)cc3)C2)cc1 (stereo not drawn) -12.9%
O=C(CSc1nccn1Cc1ccc(F)cc1)NC1CCCC1 1.13%
CCCOc1ccccc1C(=O)N1CCCCC1CCN1CCCCC1 (stereo not drawn) -0.525%
CCC(=O)N1c2ccccc2CC1C(=O)NCCc1ccccc1OC (stereo not drawn) 0.924%
CCc1ccc(-n2nc(C)c3c(C(=O)Nc4ccc(Cl)cc4)cc(C)nc32)cc1 -0.115%
Cc1ccc(C)c(-c2ccc(=O)n(C(C)C(=O)Nc3ccccc3C(F)(F)F)n2)c1 (stereo not drawn) 2.98%
CCCCNC(=O)CSc1nc(-c2ccc(OC)cc2)cc(C(F)(F)F)n1 1.1%
O=C(NC1CC(=O)N(c2cccc(F)c2)C1)c1ccc(S(=O)(=O)N2CCCCC2)cc1 (stereo not drawn) 0.0025%
COc1ccc(OC)c(-n2nnc(-c3nc(-c4ccc5c(c4)OCO5)no3)c2C)c1 -8.34%
COC(=O)c1ccccc1NC(=O)CCn1c(=O)c2cccn2c2cccnc21 4.67%
Cc1noc(-c2ccc(N(C)Cc3ccccc3)c([N+](=O)[O-])c2)n1 5.62%
COc1ccc(C(=O)Nc2cc(-c3nc4ncccc4o3)ccc2C)cc1Br 8.97%
COc1ccc(OCc2nc(-c3ccc(OC)c(OC)c3)no2)cc1 -0.941%
CC(=O)Nc1ccc(C)cc1-c1nc2ccccc2n(Cc2cccc(Br)c2)c1=O 2.42%
CC(=O)Nc1c(C)nn(-c2ccccc2)c1N1CCC(C(=O)Nc2ccc(C)cc2Cl)CC1 1.84%
CCOC(=O)C1CCCN(C(=O)c2ccc(C)c(NC(=O)c3nsc4ccccc34)c2)C1 (stereo not drawn) -2.75%
